Screen size: about 48,000 compounds; about 120 (0.25%) were called active. Not shown: some 4% with an inconclusive outcome. Calls come from the whole dose curve; as a rule, active = well fitted activation curve with a large enough effect; inconclusive = small, poorly fitted or top-dose-only effect, or another doubt; inactive = no such curve, though single readings can be large or run the other way. The list shows a part of the results.
Assay: Primary qHTS for Identification of Small Molecule Activators of Huntingtin-Antisense Promoter Activity; note: nearly all actives have a fitted effect of over 55% in size
Conditions: HEK293 HTT-AS promoter firefly luciferase reporter, 24 h; series mostly up to 57.5 µM; activity change, positive = activation: at the top concentration
How it was run: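 HEK293 luciferase promoter-reporter cells (2,500/well) plated 24 h, then compounds added at up to 57.5 uM final for 24 h at 37 °C. Firefly luminescence by Dual-Glo, normalized to vehicle (0%) and zero RLU (-100%).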

Activity change, positive = activation, inactive:
Cc1ccc2onc(CC(=O)Nc3cccc(C(F)(F)F)c3)c2c1 -32.3%
O=C(Nc1ccccc1)N(Cc1cccs1)c1ccc(F)cc1 -16.6%
CCOC(=O)CSc1nc2cc3c(cc2c(=O)n1CCCC(=O)NCCc1ccc(OC)c(OC)c1)OCO3 -10.5%
C[n+]1ccccc1/C=N/O 0.354%
COc1cccc(CNC(=O)c2cc(S(=O)(=O)N3CCCCCC3)cn2C)c1 -28.5%
CCOC(=O)c1sc(N2C(=O)c3oc4ccc(C)cc4c(=O)c3C2c2ccccc2F)nc1C (stereo not drawn) -8.82%
CCc1cccc(NS(=O)(=O)c2ccc3c(c2)n(C)c(=O)c(=O)n3C)c1 -9.76%
CCOC(=O)c1c(NC(=O)CSc2cn(CCNC(=O)c3ccc(OC)c(OC)c3)c3ccccc23)sc2c1CCCC2 -26.6%
Cc1ccc(CNC(=O)CCCn2nc(C)c3c(C)n(-c4ccccc4)nc3c2=O)cc1 -3.58%
Nc1ccc(/C=C/c2ccc(N)cc2S(=O)(=O)O)c(S(=O)(=O)O)c1 -0.0528% [at 0.74 µM, percent change from vehicle, -100% = no light]
Cc1cccc(Nc2ccccc2C(=O)O)c1C 2.66%
CCCCC(=O)OCc1cc(=O)n2nc(C3CCCCC3)sc2n1 -11.7%
CCC1CN(C(=O)Nc2cc(C)ccc2OC)c2cc(Cl)ccc2O1 (stereo not drawn) -22.1%
COC(=O)c1ccc(NC(=O)CC2Nc3cc(C)c(C)cc3NC2=O)cc1 (stereo not drawn) -75.7%
COc1ccccc1NCc1cccn1-c1nnc(N2CCCCCC2)s1 -52.1%
Cc1cc(C)n(-c2nc3ccccc3nc2Nc2ccc(Cl)c(Cl)c2)n1 -9.49%
Cc1cc(C)cc(OCC(=O)NC(Cc2c[nH]c3ccccc23)C(=O)O)c1 (stereo not drawn) -14.1%
CCOc1ccc(S(=O)(=O)Nc2ccc3oc(C)c(C(=O)OC(C)C)c3c2)cc1 -6.95%
Cc1cccc(OCC(=O)Nc2c(C(=O)N3CCN(c4ccccc4F)CC3)oc3ccccc23)c1 -10.4%
CCOc1cc(N)c(Cl)cc1C(=O)NCC1CN(Cc2ccc(F)cc2)CCO1 (stereo not drawn)
Cc1ccc(NC(=O)N2CC3CCCN3c3ccccc32)c(C)c1 (stereo not drawn) -2.9%
Fc1ccc(-n2ncc3c(N4CCCCCC4)ncnc32)cc1 -49.5%
Cc1ccc(-c2cc(C(=O)N(Cc3ccc(C(C)(C)C)cc3)Cc3ccco3)no2)cc1 6.05%
COc1ccc(NC(=O)c2ccco2)cc1NC(=O)COc1ccc(Cl)c(C)c1 -32%
Cc1cc(N2CCN(c3cccc(C(F)(F)F)c3)CC2)n2nc(-c3ccccc3)nc2n1 5.87%
CCc1cccc(C)c1NC(=O)CCn1c(=O)c2cccn2c2ccccc21 -12.4%
CC(C)C(=O)NCC1(N(C)C)CCCCC1 13.5%
Cc1ccc(NS(=O)(=O)c2cc3[nH]c(=O)c(=O)[nH]c3cc2C)cc1Cl -13%
CCOc1ccc(C(=O)Nc2c(C(=O)N3CCN(c4ccccc4F)CC3)oc3ccccc23)cc1 38.1%
CCOc1ccc(N2C(=O)c3n[nH]c(-c4cccs4)c3C2c2cccc(F)c2)cc1 (stereo not drawn) -21.9%
CCOC(=O)c1ccc(-n2c(-c3ccc(C)cc3)c(C)n3c4c(=O)n(C)c(=O)n(C)c4nc23)cc1 -0.0123%
COc1ccc(-c2cc(-c3ccc4c(c3)NC(=O)CO4)nc3c2COc2ccc(F)cc2-3)cc1 0.378%
CCN(CC)S(=O)(=O)c1ccc2c(c1)N(CC(=O)N1CCN(c3cccc(OC)c3)CC1)C(=O)CO2 -9.16%
CCOc1ccccc1CNC(=O)c1ccc2c(c1)nc1n2CCCCC1 23.5%
Cc1c(Nc2nc3ccccc3n3c(C)nnc23)cccc1C(=O)O -8.88%
Cc1ccc(Cl)cc1-n1ncc2c(NCCCc3ccccc3)ncnc21 -30%
CCc1ccc(NC(=O)c2ccc(F)c(S(=O)(=O)NCc3ccc(Cl)c(Cl)c3)c2)cc1 -37.4%
COc1ccc(Br)cc1CNC(=O)CCSCc1ccc(C)cc1 -20.2%
Cc1ccc(S(=O)(=O)N2CCN(Cc3nc4ccc(C)cc4o3)CC2)cc1 -18.7%
O=C(CS(=O)(=O)c1cccc2nsnc12)N1CCN(c2cccc(C(F)(F)F)c2)CC1 -27.4%
O=C(Cn1cc(S(=O)(=O)c2ccccc2)c(=O)c2cc3c(cc21)OCO3)Nc1ccc(Cl)cc1 -21.6%
CCNc1cc(N2CCN(C3CCCCC3)CC2)c2noc3c2c1C(=O)c1ccccc1-3 -9.83%
CSc1ccc(CCNC(=O)c2ccc(-c3nc(COc4ccc(C)cc4)c(C)o3)cc2)cc1 10%
O=C1NC(=O)C(=Cc2ccc3nccc(-c4ccncc4)c3c2)S1 -32.4%
CCOC(=O)CSc1nc2ccccc2c(=O)n1-c1cccc(C)c1 -7.94%
O=C(O)Cc1ccc(NC2(c3ccccc3)C(=O)c3ccccc3C2=O)cc1 -1.18%
COC(=O)c1ccccc1NC(=O)C1=C(C)C(=O)OC12CCCCCC2 -15.8%
COc1ccc(C(=O)Nc2ccccc2SCc2cc(=O)c3cccc(C)c3[nH]2)cc1 -2.99%
COc1ccc(S(=O)(=O)NCCS(=O)(=O)N2CCN(c3ccccc3)CC2)cc1C -23.8%
COc1ccc(N2CCN(Cc3cccn3-c3nnc(N4CCN(C5CCCCC5)CC4)s3)CC2)cc1 -22%
Cc1nc(SC(C)C(=O)Nc2ccccc2Cl)cc(-c2ccccc2)n1 (stereo not drawn) -30.7%
CCn1cc(C(=O)N2CCN(c3cc(C)ccc3C)CC2)c(=O)c2cc(S(=O)(=O)N3CCCCC3)ccc21 5.43% [at 11.5 µM, percent change from vehicle, -100% = no light]
CCOc1ccc(-n2nc(CO)c(C(=O)NCc3cccs3)n2)cc1 9.95%
Cc1ccc([N+](=O)[O-])cc1S(=O)(=O)N1CCn2cccc2C1c1ccccc1 (stereo not drawn) -19.2%
CC(Oc1ccc(Br)cc1)C(=O)Nc1ncn[nH]1 (stereo not drawn) -6.77%
COc1ccc(NC(=O)CCc2nnc3n(Cc4ccccc4Cl)c(=O)c4ccccc4n23)cc1 1.27%
Cc1ccc2nc(-c3ccc(Cl)c(NC(=O)COc4ccc(C(C)C)cc4)c3)oc2c1 18%
Cc1ccc(C)c(NC(=O)C2CCCN(S(=O)(=O)c3cn(C)cn3)C2)c1 (stereo not drawn) -0.768%
CC(N)C(=O)OC(C)(C)Cc1ccc(Cl)cc1 (stereo not drawn) -5.92%
Cc1ccc(N2C(=O)N(Cc3cc(=O)n4ccccc4n3)c3ccccc3S2(=O)=O)cc1Cl -31.3%
CCOc1ccccc1CNC(=O)Cn1cc2c(n1)-c1c(oc(C(=O)N3CCCC3)c1C)CC2 -39.8%
CN(CC=CC#CC(C)(C)C)Cc1cccc2ccccc12 14.4%
CCN(CC)CCNC(=O)COc1ccc(OC)cc1 -11.4%
COc1ccc(Cn2c(CO)cnc2SCc2ccc(F)cc2)cc1 -31.6%
CCc1ccc(Sc2cc(C(=O)O)c3ccccc3n2)cc1 5.25%
COc1ccc(-n2nc(C(=O)N(C)c3cc(Cl)ccc3OC)c3c4ccccc4n(C)c3c2=O)cc1 -1.26%
Cc1ccc(NC(=O)CC2Nc3cc(C)c(C)cc3NC2=O)c(C)c1 (stereo not drawn) -5.83%
CCOc1ccccc1NC(=O)C1=C(C)Nc2ncnn2C1c1ccc(NC(C)=O)cc1 (stereo not drawn) -14.8%
Cc1ccc(Cc2nc3ccccc3nc2SCC(=O)N2CCN(c3ccccc3)CC2)cc1 0.775%
COc1ccc(S(=O)(=O)c2nnn(-c3ccccc3F)c2C)cc1 -21.3%
Cc1nn(CCCC(=O)NCc2ccc(OC(C)C)cc2)c(=O)c2c1sc1ccccc12 -4.86%
N#CC1=C2SCN(C3CCCCC3)CN2C(=O)CC1c1c(F)cccc1Cl (stereo not drawn) -14.5%
COc1ccc(NC(=O)CSc2nc3ccccc3n2CC(=O)N2CCCCC2C)cc1 (stereo not drawn) -8.78%
COc1ccc(-c2onc(C)c2C)cc1S(=O)(=O)NCc1ccc(C)o1 -36.2%
COc1ccc(CCCc2nnc(SCC(=O)Nc3cccc(C)c3)o2)cc1 -2.21% [at 11.5 µM, percent change from vehicle, -100% = no light]
COc1ccc(-c2nc3ccc(C4=NNC(=O)CC4C)cc3[nH]2)cc1 (stereo not drawn) 12.2%
Cc1nn(CCC(=O)NCc2ccc(Cl)cc2)c(=O)c2nn(-c3ccccc3)c(C)c12 7.26%
Cc1ccc2[nH]cc(C(c3ccccc3)c3ccc(C)s3)c2c1 (stereo not drawn) -26.8%
CCC(C)NC(=O)CCc1c(C)nc2c(c(C)nn2-c2ccc(C)cc2)c1C (stereo not drawn) -9.68%
CCOc1cccc(CC(=O)NCc2ccc3c(c2)CCN3C(C)=O)c1OCC 3.98%
CCOC(=O)c1ccc(-c2ccc(/C=C(\C#N)c3nc4ccc(C)cc4[nH]3)o2)cc1 6.87%
COCC(C)NC(=O)c1cc2c(=O)n3cccc(C)c3nc2s1 (stereo not drawn) 16.8%
CCN(c1ccc(Cl)cc1)S(=O)(=O)c1nnc(NC(=O)c2ccccc2C)s1 -34.3%
CC(CNC(=O)C1CCN(C(=O)N2CCOc3ccc(Cl)cc32)CC1)c1ccccc1 (stereo not drawn) -16.5%
CC(C)(C)C1CCc2nc(NC(=O)c3ccc([N+](=O)[O-])cc3)sc2C1 (stereo not drawn) -33.2%
CC1Cn2c(C(=O)NCc3cccc(Br)c3)cc3cccc(c32)S1 (stereo not drawn) -11.5%
Cc1ccc(C(=O)O)cc1NC1(c2ccccc2)C(=O)c2ccccc2C1=O -2.51%
Cc1cccc(-c2nc3c(cnn3-c3ccccc3)c(=O)n2-c2ccc(Br)cc2)c1 9.29%
COc1ccc2oc(-c3ccc(C)c(NC(=O)c4ccc(-c5ccccc5[N+](=O)[O-])o4)c3)nc2c1 -27.1%
Cc1c(Cl)cccc1NC(=O)CSc1nc2ncccc2o1 -19%
C[C@@H]1[C@H](O)[C@@H](C)C=CC=CC=CC=CC=CC=CC=C[C@H](O[C@@H]2O[C@H](C)[C@H](O)[C@H](N)[C@@H]2O)C[C@@H]2O[C@](O)(C[C@@H](O)C[C@@H](O)[C@H](O)CC[C@@H](O)C[C@@H](O)CC(=O)O[C@H]1C)C[C@H](O)[C@@H]2C(=O)O -10.3%
COc1ccccc1CNC(=O)C1CCCN(c2nnc(C)c3c(C)n(-c4ccccc4)nc23)C1 (stereo not drawn) -9.53%
CC(=O)OCC1=C(C(=O)O)N2C(=O)[C@@H](NC(=O)Cc3cccs3)[C@H]2SC1 3.11%
